± gives the standard deviation of the averaged measurements. The full ranking holds about 33,000 sequences; the median of “E-score (dimensionless, -0.5 to 0.5)” is about -0.049, and the highest 2% start at about 0.37. This is one part of the list.
These sequences were tested on T1, PmTbr T-box DNA-binding domain (GST fusion) (assay: PBM E-score of 8-mer (E-score (dimensionless, -0.5 to 0.5)); Tbr is Tbrain of the sea star Patiria miniata (Pm) or the sea urchin Strongylocentrotus purpuratus (Sp); higher = stronger binding preference; most listed sequences are background and not binding sites). Conditions: the construct has about 5 more residues each side.
T1 sequence: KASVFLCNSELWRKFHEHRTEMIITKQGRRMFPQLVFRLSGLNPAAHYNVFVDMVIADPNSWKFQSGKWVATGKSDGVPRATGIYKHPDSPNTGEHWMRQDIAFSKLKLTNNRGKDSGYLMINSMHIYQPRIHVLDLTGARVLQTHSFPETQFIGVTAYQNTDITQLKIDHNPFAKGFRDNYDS
How it was run: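 Universal Agilent oligonucleotide arrays, made double-stranded by primer extension, were incubated with 200 nM GST-fused Tbr T-box DNA-binding domain in PBS (pH 7.5). The protein was expressed in BL21 E. coli at 20 °C and purified by glutathione affinity chromatography. After scanning and quantification, the Universal PBM Analysis Suite assigned an enrichment E-score to each ungapped 8-mer, averaged over duplicate arrays.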

Row | Sequence | PBM E-score of 8-mer
1 | CCCTTTGA | -0.0377 ± 0.059
2 | AAACCTAG | 0.113 ± 0.032
3 | GCAGCCCA | -0.0256 ± 0.0052
4 | GCCGCACA | 0.00801 ± 0.037
5 | ATATAACC | -0.0772 ± 0.028
6 | AGTTTGGA | -0.336 ± 0.051
7 | AAAATATA | -0.335 ± 0.12
8 | ATGCAAGG | -0.0945 ± 0.046
9 | GCCAGGAC | 0.0312 ± 0.029
10 | TAGGGACA | -0.259 ± 0.063
11 | GGAAGAAA | -0.0966 ± 0.055
12 | AAGAAGGG | -0.301 ± 0.034
13 | CCTGTCCG | -0.0124 ± 0.082
14 | CGGGAGCC | -0.191 ± 0.091
15 | GGAAGGCC | -0.285 ± 0.076
16 | GTGCAAAC | 0.285 ± 0.037
17 | CCTGCTTC | 0.0358 ± 0.049
18 | CATATGCA | -0.117 ± 0.0065
19 | GTGTAGCA | 0.197 ± 0.005
20 | ACCCAAAG | -0.204 ± 0.037
21 | CAAGAGTG | 0.154 ± 0.047
22 | CGTCAACA | 0.311 ± 0.036
23 | AGCTTAGA | -0.154 ± 0.011
24 | AGGTGATA | 0.468 ± 0.0054
25 | TACGAAGA | -0.166 ± 0.067

Row | Sequence | PBM E-score of 8-mer
26 | AGCTTACT | -0.0866 ± 0.024
27 | ACATATTG | 0.125 ± 0.012
28 | AAGGCAGC | -0.0911 ± 0.044
29 | CCAGAAAG | -0.0143 ± 0.017
30 | CACCCGGG | 0.264 ± 0.0075
31 | CAGCAACA | 0.131 ± 0.077
32 | AGGCACCC | -0.169 ± 0.043
33 | CCGGGCAC | -0.218 ± 0.17
34 | ATCAATCG | -0.083 ± 0.026
35 | CGATGGTC | -0.212 ± 0.0066
36 | ATTCGGAG | -0.193 ± 0.037
37 | CCTTGTAG | -0.136 ± 0.055
38 | CATAATGA | -0.0551 ± 0.045
39 | GGGCCCGA | -0.274 ± 0.034
40 | CTCTCAAG | 0.0215 ± 0.041
41 | ATTGTGCA | -0.0224 ± 0.024
42 | GAAGTCAC | -0.0383 ± 0.0022
43 | AGCTCTTC | -0.189 ± 0.021
44 | ATCGACTG | -0.192 ± 0.069
45 | TATTTACA | -0.0373 ± 0.021
46 | CTCCCCCC | -0.271 ± 0.022
47 | CTTTTCGC | 0.273 ± 0.015
48 | TCAAAACA | -0.0131 ± 0.0092
49 | TCCGACAA | 0.118 ± 0.0045
50 | CCTGCCAC | 0.221 ± 0.0026

Row | Sequence | PBM E-score of 8-mer
51 | TATAAGAA | -0.028 ± 0.13
52 | CGGGTGAG | 0.266 ± 0.018
53 | AATTTGTC | 0.284 ± 0.0037
54 | ATGCTCTA | -0.371 ± 0.026
55 | CTTATAAG | -0.0602 ± 0.076
56 | GAATGAAA | -0.143 ± 0.032
57 | ACTAGATG | -0.0461 ± 0.043
58 | CGGTGTCA | 0.4 ± 0.012
59 | AACACTCC | 0.288 ± 0.029
60 | AAAGCTCC | -0.321 ± 0.059
61 | AACGGGTG | 0.199 ± 0.049
62 | CCCCGGCG | -0.181 ± 0.037
63 | ACCCGCTG | 0.153 ± 0.016
64 | CTCCGACC | -0.166 ± 0.0073
65 | AGCTAAGC | -0.0834 ± 0.0098
66 | CAACTCCG | 0.0281 ± 0.032
67 | ATCCGCAA | 0.002 ± 0.083
68 | AACGTAGA | -0.304 ± 0.058
69 | CTCTTGCC | -0.00238 ± 0.0026
70 | AAACGGGC | -0.228 ± 0.087
71 | TCACTCAA | 0.0445 ± 0.019
72 | ATATTTCG | 0.198 ± 0.047
73 | AAGTATGC | 0.008 ± 0.011
74 | GCTTACCC | -0.074 ± 0.084
75 | ATGCCGTC | -0.114 ± 0.059

Row | Sequence | PBM E-score of 8-mer
76 | GCTTAATA | -0.138 ± 0.019
77 | ATGGTCTG | -0.133 ± 0.075
78 | CATTCGAA | -0.124 ± 0.0043
79 | ATTCGTTG | -0.0949 ± 0.043
80 | GATGTAAC | 0.00732 ± 0.00069
81 | GATGGGAC | -0.141 ± 0.059
82 | AAATTCCG | 0.0152 ± 0.11
83 | TGCCGGAA | 0.0789 ± 0.029
84 | GATCCACA | 0.0954 ± 0.011
85 | GCTGTTTA | -0.0135 ± 0.078
86 | TCACACCA | 0.48075 ± 0.00012
87 | GACGACTA | 0.0252 ± 0.035
88 | ACACTATC | 0.3271 ± 0.0028
89 | AGCCGGTC | -0.275 ± 0.052
90 | CCTCTCCA | -0.0419 ± 0.03
91 | CAGAATGC | -0.0605 ± 0.12
92 | CGTCTTCA | -0.00878 ± 0.0017
93 | ACGGGTGA | 0.13 ± 0.0046
94 | GCCCACGC | -0.153 ± 0.034
95 | ACGAGTCA | 0.0181 ± 0.0023
96 | AAATGTAC | -0.156 ± 0.053
97 | CATAATTC | 0.0106 ± 0.07
98 | TAAACTAA | -0.035 ± 0.025
99 | CGAAGAAA | -0.00252 ± 0.047
100 | AGTGATCC | -0.134 ± 0.014

Row | Sequence | PBM E-score of 8-mer
101 | CCGGGAGA | 0.018 ± 0.013
102 | GTCTTAAC | -0.147 ± 0.066
103 | CAATTTAC | 0.0778 ± 0.034
104 | CCCCAGTA | -0.146 ± 0.034
105 | ATAGGCTC | -0.224 ± 0.015
106 | CCAAGAGC | -0.212 ± 0.044
107 | CCGAAACG | 0.0417 ± 0.074
108 | CGTAGTGC | -0.0466 ± 0.03
109 | GATATGCC | -0.14 ± 0.1
110 | CGAGAACA | 0.2 ± 0.0064
111 | CCGAGCAA | -0.2992 ± 0.0028
112 | CAGATAGA | -0.1661 ± 0.001
113 | CCGTGGTC | 0.00288 ± 0.032
114 | GGAAGCCA | -0.15 ± 0.044
115 | CCGCACCA | 0.187 ± 0.0087
116 | AGTATAGA | -0.159 ± 0.016
117 | AATGTACG | -0.101 ± 0.005
118 | AAGACAAT | -0.0638 ± 0.0098
119 | CCTTCTAC | -0.124 ± 0.028
120 | ACAGTTCC | 0.187 ± 0.036
121 | CGCGGCCG | -0.0498 ± 0.018
122 | GTGCTTCA | -0.105 ± 0.061
123 | CTTCTTGC | -0.0189 ± 0.0043
124 | ACGCCCCA | 0.225 ± 0.022
125 | CGCCAGCC | 0.0394 ± 0.03

Row | Sequence | PBM E-score of 8-mer
126 | ACACTGGC | 0.0286 ± 0.049
127 | GGGAAGCA | -0.135 ± 0.035
128 | CGGCGGAC | -0.105 ± 0.012
129 | TACAGAGA | -0.0283 ± 0.066
130 | CGTTCCAG | -0.142 ± 0.013
131 | ACTTGGGG | 0.0475 ± 0.047
132 | GCAACTGC | 0.095 ± 0.016
133 | CCAGAGAA | 0.0215 ± 0.056
134 | AATGCCCA | -0.158 ± 0.024
135 | ATCTCGGC | -0.0253 ± 0.012
136 | GCCCATTA | -0.282 ± 0.064
137 | ACAATAAG | 0.063 ± 0.063
138 | CAAAAAAC | 0.0888 ± 0.075
139 | GACAAACC | 0.0399 ± 0.017
140 | AGAAATGA | -0.133 ± 0.034
141 | TACCAGAA | -0.126 ± 0.082
142 | ATGACCCC | -0.262 ± 0.087
143 | CGTTCGAC | 0.0978 ± 0.017
144 | ACCGACTC | -0.012 ± 0.041
145 | AAGTAGAG | -0.085 ± 0.0023
146 | GGGCTGAC | -0.0982 ± 0.021
147 | CTATTACC | -0.265 ± 0.056
148 | ACGGGTAC | -0.00756 ± 0.077
149 | CCAGTGGC | -0.00243 ± 0.053
150 | TAAAATGA | -0.0515 ± 0.079

Row | Sequence | PBM E-score of 8-mer
151 | AAGGTCGG | -0.123 ± 0.037
152 | ACACATCT | 0.325 ± 0.019
153 | CCCACTAA | -0.0718 ± 0.0015
154 | AATAAGTG | 0.29 ± 0.02
155 | AGCTTCTA | -0.158 ± 0.062
156 | CAGAGTCC | -0.212 ± 0.1
157 | CCCAGCTC | -0.138 ± 0.066
158 | GAATCCTC | -0.159 ± 0.068
159 | CGTGGCAC | 0.233 ± 0.052
160 | CTTTAGGC | 0.0663 ± 0.057
161 | ACGTACAA | 0.0556 ± 0.0092
162 | CCCTAGCC | -0.19433 ± 0.00014
163 | GCCCGGCA | 0.0239 ± 0.091
164 | CTCAACGA | -0.1 ± 0.049
165 | ATGACGCA | -0.0538 ± 0.042
166 | ATGGGAGG | -0.271 ± 0.082
167 | CGGGTGTA | 0.0538 ± 0.035
168 | TACAGCGA | -0.106 ± 0.033
169 | GCTTTCCC | 0.129 ± 0.068
170 | CTTGTACC | -0.144 ± 0.037
171 | AAGGTTAC | -0.145 ± 0.017
172 | AAATGGCT | -0.12 ± 0.052

Reference: the supplement of paper PMC4166925
